# This is one part of the list.
# Tested on: PfSIP2 AP2 domain 1 (GST-tagged)
# Experiment: gcPBM binding intensity (ln(normalized median fluorescence intensity)); higher = stronger DNA binding
# In short: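 GST-tagged P. falciparum DNA-binding domains, expressed in E. coli (about 25 μg on average), were applied for 1 h to an Agilent 4 × 180k array of primer-extended double-stranded 36-bp intergenic genomic probes plus negative controls. The binding buffer was 1× PBS with 1% milk, 0.2 mg/ml BSA, 0.5% salmon testes DNA and 0.03% Triton X-100. Bound protein was detected with Alexa488 anti-GST antibody and scanned at 488 nm. Binding intensity is the highest Masliner-normalised natural-log median intensity across replicate spots of either probe orientation.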
row,Sequence,gcPBM binding intensity (ln)
1,GATTTATACAAATATGTACACACTAAATATATATTA [CACACA_site455],7.22
2,TATTTATCTTTACGCACACACTTGCATGTACAAAAG [CACACA_site4753],7.45
3,ATATGTATGTATTTATTATTGTGCATTGTATTTATA [CACACA_negctrl_site664],7.44
4,AATACCCATATCTTCACACATACATAATAAATTATA [CACACA_site5367],6.96
5,TTTGAATATTCATATGCACACAAATTAATATACATA [CACACA_site8040],7.14
6,TTTATTTATGTGTGGGTGCATATACGTATGATGTAT,10.6
7,GTCGTATAATTTTCAGTGCAATATTTGAATAAATGG [GTGCAC_site9404],8.58
8,ATTTATTAATTACCATGTATAAAAAATTATATAATA [CACACA_negctrl_site581],6.85
9,AGCAACTCAATATATATAAGAATTGTAATATAATAT [GTGCAC_negctrl_site429],6.71
10,ATACAATACAAAAACACACACAAAAAAAGAAAAGGA [CACACA_site2156],7.18
11,ATATATTTATATATTTGTACATATAATATCTTCTTT [XGTACX_site8504],6.93
12,ATAATGTATTTATATATATATATATATTTTAATAAA [CACACA_negctrl_site460],7.09
13,AATTATAAAAAAAAAAAAAAAAAAAAAAACTAAATG [CACACA_negctrl_site1379],6.83
14,TAATAAATCAATAAATGTACATATATGTATAATTTC [XGTACX_site980],7
15,TTTAAAAATATATTCACACAGAAATAGTAAAAGTTA [CACACA_site4587],6.88
16,ATTATAACTAAATAAATGATATATAATATTTTATTT [XGTACX_negctrl_site234],6.79
17,TATATATAGAAACACACACACACACCCAAGCGTAGC [CACACA_site63],6.93
18,ATCTATATCTATAATACACACATAAATGGATATATA [CACACA_site6284],7.08
19,AATGTGTACGCACGCACACACAAAAAAATATATATA [CACACA_site2913],7.24
20,CAAGCCCTTCTGCTTACACACAGTAATTATTGTGCA [CACACA_site7399],6.63
21,TAAATATATTTATAAGCACACACTAATAAACCAACA [CACACA_site8022],7.09
22,TTATGCAATTTGTATTGTACATTCATGATATTAATA [XGTACX_site5070],6.81
23,AAAACATAAATACATACACACATAATATAGATTAAT [CACACA_site6205],6.95
24,TTAAAAATAAATTCATGTACATAATATATATATATA [XGTACX_site7908],9.25

# From the supplement of paper PMC11417369
